Results from PubChem BioAssay (NCI).
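Tested at 5 concentrations; 48 h exposure; 96-well plates; endpoints linearly interpolated, else capped at highest concentration. GI50 = concentration required for 50% inhibition of growth. TGI: total growth inhibition.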

System: NCI-H322M lung
Experiment: DTP human tumour cell line panel, 48 h

SMILES | TGI [µM] | GI50 [µM]
OCC(O)C(O)C(O)C(/C=N\Nc1ncnc2ccc(Br)cc12)=N/Nc1ncnc2ccc(Br)cc12 (stereo not given) | > 100 | 
OCc1ccc(Oc2c3ccccc3nc3occc23)cc1 | 40.5 | 13.7
C=C1C(=O)O[C@H]2C[C@@H]1CCC1(C)OC1CC/C(C)=C/CC[C@H]2C (stereo not given in full) | 35.7 | 18.2
CC(C)C(C/C=C1\CC(CO)(COC(=O)CC(C(C)C)C(C)C)OC1=O)C(C)C (stereo not given) | 26.3 | 
CC[C@@]1(O)C(=O)OCc2c1cc1n(c2=O)Cc2cc3c(NC(=O)CN)cccc3nc2-1 | > 86.5 | 
COC(=O)[C@@H]1CCCN1C(=O)[C@H]1CCCN1C(=O)[C@@H](Cc1c[nH]c2ccccc12)NC(=S)Nc1cc(C(F)(F)F)cc(C(F)(F)F)c1 | 10.6 | 3.26
CN1CCC(n2[nH]c(-c3ccccc3)c(Cc3ccccc3)c2=O)CC1 | > 100 | 
O=C1O[C@]2(c3ccccc3)C(c3ccccc3)=C[C@]2(C(=O)c2ccccc2)C1=O | > 100 | 
CO/N=C(/COc1c(-c2ccccc2)oc2ccccc2c1=O)c1ccc(F)cc1 | > 100 | > 100
COc1cc2c(c(OC)c1OC)-c1ccc(SC)c(=O)cc1C(CC(=O)Oc1cccc(C#N)c1)C2 (stereo not given) | > 100 | 
Clc1cc(Cl)cc(Nc2nc3ccccc3nc2-c2cccs2)c1 | > 100 | 
O=[N+]([O-])c1cccc(-c2cc(-c3cc(Br)ccc3O)[nH]n2)c1 | 12.1 | 2.82
COc1nc2[nH]ccc2c(=O)n1C | > 100 | 
O=C(CCCn1ccnc1[N+](=O)[O-])NCCn1ccnc1[N+](=O)[O-] | > 100 | 
NC(N)=N/N=C/c1c(-c2ccc(Cl)c([N+](=O)[O-])c2)nc2ccccn12 | 3.63 | 2.01
COc1ccc(/C=C2\CN(C)Cc3c2[nH]c(=O)c(C#N)c3-c2ccc(OC)cc2)cc1 | > 100 | 
O=C(O)c1ccc(Nc2nc3ccccc3nc2C(=O)O)cc1 | > 100 | 
Nc1c(S(=O)(=O)O)cc(Nc2cccc(S(=O)(=O)/C=C/S(=O)(=O)O)c2)c2c1C(=O)c1ccccc1C2=O | > 100 | 
CNC(=O)OCc1[nH]ccc2c(C)c3nc4ccc(OC)cc4c3cc12 | 15.2 | 
O=c1[nH]c2ccccc2c2oc(-c3ccccc3)nc12 | 51 | 
Cc1cccc2c1C/C(=C\c1cccc(C)c1C(=O)O)C2=O | > 100 | 
CCOC(=O)N(C)C1(c2ccccc2)CCN(CCCC(=O)c2ccc(F)cc2)CC1 | > 100 | 
CC(C)C1=CC23CCC4C(C)(C(=O)O)CCCC4(C)C2CC1C(C(=O)O)C3C(=O)O (stereo not given) | > 100 | 
CC(C)=CC1CC(C)C2(CCC3(C)CC4C(C(=O)CC4(C)O)/C(C=O)=C\CC32)O1 (stereo not given) | 1.23 | 

SMILES | TGI [µM] | GI50 [µM]
COc1cc(-c2nc3nc(N4CCN(C)CC4)ccc3[nH]2)c(OC)c2[nH]c(COC(C)=O)nc12 | 98.3 | 
CCCCCCOc1ccc(NC2=C(Cl)C(=O)c3ncccc3C2=O)cc1 | 3.77 | 
NC(=O)NCCCC(NC(=O)OCCCCCn1ccc(=O)[nH]c1=O)C(=O)O (stereo not given) | > 100 | 
NC1=NC(c2ccc(F)cc2)C2=C(N1)c1ccc3ccccc3c1OCC2 (stereo not given) | > 100 | 22.4
CCS(=O)(=O)c1c2cc(OC)ccc2nc2ccc(OC)cc12 | > 100 | 
CCOC(=O)C1=C(c2ccccc2)N(c2ccc(OC)cc2)[C@]2(C#N)C(O)=C(Cl)C(Cl)=C(O)[C@]12C#N | 66.7 | 23
C#CCOC(=O)C(N)CCCN=C(N)N (stereo not given) | > 100 | 
C=C(C)[C@@H]1CC[C@]2(C(=O)NCCNCCNCCN)CC[C@]3(C)[C@H](CC[C@@H]4[C@@]5(C)CCC(=O)C(C)(C)[C@@H]5CC[C@]43C)[C@@H]12 | 14 | 7.32
C[C@H](CCC1=NCCN1)[C@H]1CC[C@H]2[C@@H]3CC[C@@H]4C[C@H](O)CC[C@]4(C)[C@H]3C[C@H](O)[C@]12C | 28.5 | 
COc1cc2ncn(-c3cc(OCc4ccccc4S(C)(=O)=O)c(C#N)s3)c2cc1OC | > 25 | > 25
CN1C(=O)C(c2c[nH]c3ccccc23)=C(c2c(-c3c[nH]c4ccccc34)[nH]c3ccccc23)C1=O | 6.6 | 2.38
Cc1ccc(C[P+](c2ccccc2)(c2ccccc2)c2ccccc2)cc1 | > 52.6 | 3.01
CCN1CCC(CC(=O)Nc2n[nH]c3nc(-c4cccs4)c(Br)cc23)CC1 | > 25 | 13.1
NC(=O)CS(=O)CC(N)C(=O)O (stereo not given) | > 100 | 
Cc1ccc(/C(=C/C=C(C#N)C#N)Sc2ccccn2)cc1 | 28.8 | 12.7
COc1ccccc1NC(=O)CC(=O)NNCC(=O)Nc1nnc(-c2ccccc2)o1 | > 100 | 
COc1cc2c(cc1OC)-c1c(c3ccc([N+](=O)[O-])cc3c(=O)n1CCCN)C2=O | 11.4 | 3.48
CCOC(=O)C(NCc1cccc(C(F)(F)F)c1)(NC(=O)c1ccccc1)C(F)(F)F (stereo not given) | > 100 | 
COc1cc(/C=C2\C(=O)Nc3ccccc32)cc(OC)c1OC | 87.1 | 18.3
O=[N+]([O-])c1ccc(N=Nc2c(O)[nH]c3ccccc23)cc1 | > 92.7 | 
N#Cc1nc(/C=C/c2ccccc2)oc1N | > 100 | 
COC(=O)[C@]12CC=C3O[C@@H]4OC5(CCCCC5)O[C@@H]4[C@H]3C1C(=O)C=CC2=O (stereo not given in full) | 45.5 | 
c1ccc(C2=C(c3ccccc3)P(c3ccccc3)C2)cc1 (stereo not given) | > 100 | 
Cc1cc2nc3c4cccc(O)c4n(CCN(C)C)c3nc2cc1C | 9.1 | 2.54
